# Some of the results follow.
# Legend:
# Experiment in all cases: glycan array binding signal (z-score within array); higher = stronger binding
# Settings in all cases: glycan notation: IUPAC condensed, linker removed
# [1] = biological target: Man(a1-2)Man(a1-3)[Man(a1-2)Man(a1-6)]Man(a1-6)[Man(a1-2)Man(a1-2)Man(a1-3)]Man
# How it was run: (§1)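 Negative Z-scores can be read as non-binding. The Z-score is calculated within each array and then averaged across arrays of one protein sequence at different concentrations or buffers and across linkers. Arrays, 3228 in all, were curated from the Consortium for Functional Glycomics database and kept only where the protein sequence was available.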
# [2] = biological target: Man(a1-2)Man(a1-3)[Man(a1-2)Man(a1-6)]Man(a1-6)[Man(a1-2)Man(a1-2)Man(a1-3)]Man(b1-4)GlcNAc(b1-4)GlcNAc
# How it was run: as §1
# [3] = biological target: Man(a1-2)Man(a1-3)[Man(a1-6)]Man(a1-6)[Man(a1-2)Man(a1-3)]Man(b1-4)GlcNAc(b1-4)GlcNAc
# How it was run: as §1
# [4] = biological target: Man(a1-2)Man(a1-6)[Man(a1-3)]Man(a1-6)[Man(a1-2)Man(a1-2)Man(a1-3)]Man
# How it was run: as §1
# [5] = biological target: Man(a1-2)Man(a1-6)[Man(a1-3)]Man(a1-6)[Man(a1-2)Man(a1-2)Man(a1-3)]Man(b1-4)GlcNAc(b1-4)GlcNAc
# How it was run: as §1
# Man(a1-3)[Man(a1-6)]Man = biological target: Man(a1-3)[Man(a1-6)]Man
# How it was run: as §1
# [6] = biological target: Man(a1-3)[Man(a1-6)]Man(a1-6)[Man(a1-2)Man(a1-3)]Man(b1-4)GlcNAc(b1-4)GlcNAc
# How it was run: as §1
# [7] = biological target: Man(a1-3)[Man(a1-6)]Man(a1-6)[Man(a1-3)]Man
# How it was run: as §1
# [8] = biological target: Man(a1-3)[Man(a1-6)]Man(a1-6)[Man(a1-3)]Man(b1-4)GlcNAc(b1-4)GlcNAc
# How it was run: as §1
# [9] = biological target: Man(a1-3)[Man(a1-6)]Man(b1-4)GlcNAc(b1-4)GlcNAc
# How it was run: as §1
# [10] = biological target: Man(a1-3)[Man(a1-6)]Man(b1-4)GlcNAc(b1-4)[Fuc(a1-6)]GlcNAc
# How it was run: as §1
# Man(a1-6)Man = biological target: Man(a1-6)Man
# How it was run: as §1
# Man(b1-4)GlcNAc = biological target: Man(b1-4)GlcNAc
# How it was run: as §1
# MurNAc(b1-4)GlcNAc = biological target: MurNAc(b1-4)GlcNAc
# How it was run: as §1
# Neu5Ac(a2-3)Gal = biological target: Neu5Ac(a2-3)Gal
# How it was run: as §1
# [11] = biological target: Neu5Ac(a2-3)Gal(b1-3)GalNAc
# How it was run: as §1
# [12] = biological target: Neu5Ac(a2-3)Gal(b1-3)GalNAc(b1-3)Gal(a1-4)Gal(b1-4)Glc
# How it was run: as §1
# [13] = biological target: Neu5Ac(a2-3)Gal(b1-3)GalNAc(b1-4)Gal(b1-4)Glc
# How it was run: as §1
# [14] = biological target: Neu5Ac(a2-3)Gal(b1-3)GalNAc(b1-4)[Neu5Ac(a2-3)]Gal(b1-4)Glc
# How it was run: as §1
# [15] = biological target: Neu5Ac(a2-3)Gal(b1-3)GalNAc(b1-4)[Neu5Ac(a2-8)Neu5Ac(a2-3)]Gal(b1-4)Glc
# How it was run: as §1
# [16] = biological target: Neu5Ac(a2-3)Gal(b1-3)GalNAc6S
# How it was run: as §1
# [17] = biological target: Neu5Ac(a2-3)Gal(b1-3)GlcNAc
# How it was run: as §1
# [18] = biological target: Neu5Ac(a2-3)Gal(b1-3)GlcNAc(b1-2)Man
# How it was run: as §1
# [19] = biological target: Neu5Ac(a2-3)Gal(b1-3)GlcNAc(b1-2)Man(a1-3)[GlcNAc(b1-4)][Neu5Ac(a2-3)Gal(b1-3)GlcNAc(b1-2)Man(a1-6)]Man(b1-4)GlcNAc(b1-4)GlcNAc
# How it was run: as §1
# [20] = biological target: Neu5Ac(a2-3)Gal(b1-3)GlcNAc(b1-2)Man(a1-3)[Neu5Ac(a2-3)Gal(b1-3)GlcNAc(b1-2)Man(a1-6)]Man(b1-4)GlcNAc(b1-4)GlcNAc
# How it was run: as §1
# [21] = biological target: Neu5Ac(a2-3)Gal(b1-3)GlcNAc(b1-2)[Neu5Ac(a2-3)Gal(b1-3)GlcNAc(b1-4)]Man(a1-6)[Neu5Ac(a2-3)Gal(b1-3)GlcNAc(b1-2)Man(a1-3)]Man(b1-4)GlcNAc(b1-4)GlcNAc
# How it was run: as §1
# [22] = biological target: Neu5Ac(a2-3)Gal(b1-3)GlcNAc(b1-3)Gal(b1-3)GlcNAc
# How it was run: as §1
# [23] = biological target: Neu5Ac(a2-3)Gal(b1-3)GlcNAc(b1-3)Gal(b1-4)GlcNAc
# How it was run: as §1
# [24] = biological target: Neu5Ac(a2-3)Gal(b1-3)GlcNAc(b1-3)GalNAc
# How it was run: as §1
# [25] = biological target: Neu5Ac(a2-3)Gal(b1-3)GlcNAc(b1-6)GalNAc
# How it was run: as §1
binder,measurement,setting,value
BT3172pd (Bacteroides thetaiotaomicron) (protein) MLPLRAEHYYYKQISLKEGLPSNVRCILRDEQGFIWIGTKAGLGKFDGHQLKRYKHQANDPHSLLHNLIYQIAEDKQHNIWILTEKGIARYQQQSNNFTFPTDEEGNYITAYSFCLVPDGILFGGKDRIYKYSYKDSSLRLLQYFNANSFKITALSVWDSKTLLCCSRWTGLYLVDLQTGEHRRPPFDCGPEITSMITDSKNRIWIAPYSGGLRCYSRDGKLSASYTTHNSSLSNDIVLSLAEREEQLWIGTDGGGINILHPETGEISQLEYIPGRENYSLPANSILCLHNDYNNNVWAGSTCNGLISIREVSMKTYTDVVPGNDRGLSNGTVRSLYRQSPDSIWIGTDGGGINLFSPHTEKFTHYSSTWGDKVAFISGFTPGKLLISLFSKGVFVFNPATGEKQPFTIIDKETTTRLCNRGKSVNLYQNTPNTVLFLGDHIYQYHLKEKKFSTITEEEGKDIVGTLVPFDHQENLTYINDIKHIYELDDQTSRLKTVFECYTDTVISSVSHDEQGHFWIGSNFGLIHYDPVLKSRTLVPTNLFTEINMVLCDQKGKVWIGVDNMLFAYFIKEQKFVLFGESNGAIQNEYLPNARLVNEQGDAYIGGVKGMLRIDGQLLLNTSEMPELQLLDITINGESANHEWYNHPAKISVPWNSNISIRIMSREEDIFRQKIYRYQIEGLNNEYTESYNPELVIRSLLPGSYRIMASCTAKDGSWIPDQQVLELTVLPPWYRTHHHHHH,glycan array binding signal (z-score),[1],-0.496
same,glycan array binding signal (z-score),[2],-0.195
same,glycan array binding signal (z-score),[3],-1.07
same,glycan array binding signal (z-score),[4],0.078
same,glycan array binding signal (z-score),[5],-0.066
same,glycan array binding signal (z-score),Man(a1-3)[Man(a1-6)]Man,-0.387
same,glycan array binding signal (z-score),[6],0.16
same,glycan array binding signal (z-score),[7],0.353
same,glycan array binding signal (z-score),[8],-0.324
same,glycan array binding signal (z-score),[9],0.075
same,glycan array binding signal (z-score),[10],-0.64
same,glycan array binding signal (z-score),Man(a1-6)Man,0.825
same,glycan array binding signal (z-score),Man(b1-4)GlcNAc,0.222
same,glycan array binding signal (z-score),MurNAc(b1-4)GlcNAc,-0.144
same,glycan array binding signal (z-score),Neu5Ac(a2-3)Gal,0.021
same,glycan array binding signal (z-score),[11],-0.736
same,glycan array binding signal (z-score),[12],-0.2
same,glycan array binding signal (z-score),[13],0.006
same,glycan array binding signal (z-score),[14],-0.617
same,glycan array binding signal (z-score),[15],0.267
same,glycan array binding signal (z-score),[16],-0.37
same,glycan array binding signal (z-score),[17],0.443
same,glycan array binding signal (z-score),[18],1.2
same,glycan array binding signal (z-score),[19],-0.661
same,glycan array binding signal (z-score),[20],0.494
same,glycan array binding signal (z-score),[21],0.516
same,glycan array binding signal (z-score),[22],-0.376
same,glycan array binding signal (z-score),[23],-0.449
same,glycan array binding signal (z-score),[24],0.141
same,glycan array binding signal (z-score),[25],0.523

# — the supplement of paper PMC8728848
